Test results: PubChem BioAssay (Tox21)
Several values for one entry are separate records, joined by “and”; a condition that tells them apart may be missing. Equal entries are not always repeated. This list was built around the results that the source calls inconclusive (neither active nor inactive); the mix of calls is not that of the screen. A potency beside an inconclusive call is a rough fit, not a confirmed value. More than one record can exist for a structure, and the calls need not agree. Activity calls are given as the source filed them. The call rests on the fitted dose curve; in most records, active means well fitted cell-killing curve with a large enough effect in the repeat runs; inconclusive means weak or mixed curves, or effect the other way; inactive means flat fitted curve, though single readings scatter.

Experiments:
[1] = cAMP Responsive Elements (CRE) small molecule antagonists, cell-based qHTS assay: qHTS cell viability counter screen (AID 2060913); further: nearly all actives have a fitted effect of over 40% in size
Outline: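 CRE-bla HEK293T cells were seeded in assay medium with 10% dialyzed FBS, incubated 18 hrs at 37 C, then exposed to compounds plus 0.25 uM final NKH477 for 3 hrs. Viability was read by CellTiter-Glo luminescence after 30 min, in the same wells.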

[2] = cAMP Responsive Elements (CRE) small molecule agonists, cell-based qHTS assay: qHTS cell viability counter screen (AID 2060914); further: nearly all actives have a fitted effect of over 50% in size
Outline: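 Luminescence read-out (CellTiter-Glo, 30 min RT) of ATP-based viability in CRE-bla HEK 293T cells, run in the same wells as the β-lactamase reporter assay after 3 h compound treatment at 37 °C.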
Potency means the concentration at half of the fitted maximal effect; tags describe the fitted curve by direction and shape.

CCCCc1ccc(O)cc1
Potency [1]: inconclusive: 14.3 µM [cytotoxic, single point]
Potency [2]: inactive

CCOP(=S)(OCC)Oc1cc(Cl)c(Br)cc1Cl
Potency [1]: inconclusive: 68.6 µM [cytotoxic, partial curve, poor fit]

CCC[CH2][Sn]([CH2]CCC)([CH2]CCC)[O]C(=O)c1ccccc1
Potency [1]: active: 5.7 µM
Potency [2]: active: 5.45 µM

CC(C)Oc1cc(-n2nc(C(C)(C)C)oc2=O)c(Cl)cc1Cl
Potency [1]: inconclusive: 54.5 µM [cytotoxic, partial curve, poor fit]
Potency [2]: inconclusive: 0.243 µM [cytotoxic, single point]

ClC1=C(Cl)C2(Cl)C3C(Cl)C(Cl)CC3C1(Cl)C2(Cl)Cl (centres undefined)
Potency [1]: active: 60.9 µM and inconclusive: 30.6 µM [cytotoxic, partial curve, poor fit]
Potency [2]: inconclusive: 76.7 µM [cytotoxic, single point] and active: 54.5 µM

Cc1cc(Cl)ccc1OCCCC(=O)O
Potency [1]: inconclusive: 1.26 µM [cytotoxic, single point]

O=[N+]([O-])c1ccc(Nc2ccccc2)cc1
Potency [1]: inconclusive: 57 µM [cytotoxic, partial curve, poor fit]

CCCCCCCCCCCCCCCCCC(=O)O
Potency [1]: inactive

CCOC(=O)c1cn2nc(OP(=S)(OCC)OCC)cc2nc1C
Potency [1]: inconclusive: 68.6 µM [cytotoxic, partial curve, poor fit]
Potency [2]: inconclusive: 6.86 µM [cytotoxic, single point]

C=CCC1=C(C)C(OC(=O)C2C(C=C(C)C)C2(C)C)CC1=O (centres undefined)
Potency [1]: inconclusive: 27.3 µM [cytotoxic, full curve, poor fit]
Potency [2]: inconclusive: 8.63 µM [cytotoxic, full curve, poor fit]

CN(C)C(=S)[S-].CN(C)C(=S)[S-].[Cu+2]
Potency [1]: active: 13.2 µM
Potency [2]: inconclusive: 16.7 µM [cytotoxic, single point]

CCCCNC(=O)OCC#CI
Potency [1]: inconclusive: 68.6 µM [cytotoxic, partial curve, poor fit]
Potency [2]: inactive

CC[C@H](C)[C@H]1O[C@]2(C=C[C@@H]1C)C[C@@H]1C[C@@H](C/C=C(\C)[C@@H](O[C@H]3C[C@H](OC)[C@@H](O[C@H]4C[C@H](OC)[C@@H](NC)[C@H](C)O4)[C@H](C)O3)[C@@H](C)/C=C/C=C3\CO[C@@H]4[C@H](O)C(C)=C[C@@H](C(=O)O1)[C@]34O)O2
Potency [1]: active: 15.4 µM
Potency [2]: active: 19.3 µM

CC(C)(c1ccccc1)c1ccc(O)c(C(C)(C)c2ccccc2)c1
Potency [1]: active: 42.9 µM and active: 54.5 µM
Potency [2]: active: 60.6 µM and active: 61.1 µM

[Hg+2].[I-].[I-]
Potency [1]: active: 54.5 µM
Potency [2]: inconclusive: 77 µM [cytotoxic, partial curve, poor fit]

N#Cc1nn(-c2c(Cl)cc(C(F)(F)F)cc2Cl)c(N)c1S(=O)C(F)(F)F (centres undefined)
Potency [1]: inconclusive: 69 µM [cytotoxic]
Potency [2]: inconclusive: 61.5 µM [cytotoxic, single point] and inconclusive: 29.8 µM [cytotoxic, single point]

C[C@]12CC[C@H](O)C[C@H]1CC[C@@H]1[C@@H]2C[C@@H](O)[C@]2(C)[C@@H](C3=CC(=O)OC3)CC[C@]12O
Potency [1]: inconclusive: 0.486 µM [cytotoxic, full curve]
Potency [2]: inconclusive: 0.306 µM [cytotoxic, full curve]

CCC[CH2][Sn]([Cl])([Cl])[CH2]CCC
Potency [1]: active: 17.4 µM and active: 18 µM
Potency [2]: active: 31 µM and active: 30.6 µM

CC[C@H](C)[C@H]1O[C@]2(C=C[C@@H]1C)C[C@@H]1C[C@@H](C/C=C(\C)[C@@H](O[C@H]3C[C@H](OC)[C@@H](O[C@H]4C[C@H](OC)[C@@H](O)[C@H](C)O4)[C@H](C)O3)[C@@H](C)/C=C/C=C3\CO[C@@H]4[C@H](O)C(C)=C[C@@H](C(=O)O1)[C@]34O)O2
Potency [1]: inconclusive: 40.5 µM [cytotoxic, single point]
Potency [2]: inconclusive: 40.5 µM [cytotoxic, single point]

Cc1cc(SCc2sc(-c3ccc(C(F)(F)F)c(F)c3)nc2C)ccc1OCC(=O)O
Potency [1]: inconclusive: 61.1 µM [cytotoxic, partial curve]
Potency [2]: inconclusive: 86.3 µM [cytotoxic, single point]

CC(C)(c1ccc(O)c(-c2ccccc2)c1)c1ccc(O)c(-c2ccccc2)c1
Potency [1]: active: 61.1 µM
Potency [2]: active: 61.1 µM

Nc1ccccc1C(=O)OCCc1ccccc1
Potency [1]: inconclusive: 48.8 µM [cytotoxic, partial curve, poor fit] and inconclusive: 57 µM [cytotoxic, single point]

Cc1cccc(N)c1C
Potency [1]: inconclusive: 0.565 µM [cytotoxic, single point]
Potency [2]: inactive

CC(C)(C)CC(C)(C)c1ccc(O)cc1
Potency [1]: active: 43.3 µM and inconclusive: 33.5 µM [cytotoxic, single point]
Potency [2]: inconclusive: 13.7 µM [cytotoxic, full curve, poor fit] and inconclusive: 33.5 µM [cytotoxic, single point]

C[C@@H]1O[C@@H](O[C@@H]2C=C3CC[C@@H]4[C@H](CC[C@]5(C)[C@@H](c6ccc(=O)oc6)CC[C@]45O)[C@@]3(C)CC2)[C@H](O)[C@H](O)[C@H]1O
Potency [1]: active: 0.0188 µM
Potency [2]: inconclusive: 0.0119 µM [cytotoxic, full curve]

Fc1ccc(C(OCCN2CCN(CCCc3ccccc3)CC2)c2ccc(F)cc2)cc1
Potency [1]: inconclusive: 29.8 µM [cytotoxic, single point]
Potency [2]: inconclusive: 33.5 µM [cytotoxic, single point]

C[C@H]1O[C@@H](O[C@H]2[C@@H](O)C[C@H](O[C@H]3[C@@H](O)C[C@H](O[C@H]4CC[C@@]5(C)[C@H](CC[C@@H]6[C@@H]5CC[C@]5(C)[C@@H](C7=CC(=O)OC7)CC[C@]65O)C4)O[C@@H]3C)O[C@@H]2C)C[C@H](O)[C@@H]1O
Potency [1]: inconclusive: 34.6 nM [cytotoxic, full curve] and inconclusive: 59.6 nM [cytotoxic, full curve]
Potency [2]: inconclusive: 77.4 nM [cytotoxic, full curve] and inconclusive: 84.1 nM [cytotoxic, full curve]

CC(C)(C)c1cc([N+](=O)[O-])cc(C(C)(C)C)c1O
Potency [1]: inconclusive: 34.4 µM [cytotoxic, partial curve, poor fit]
Potency [2]: inconclusive: 1.37 µM [cytotoxic, single point]

CCCC1COC(Cn2cncn2)(c2ccc(Cl)cc2Cl)O1 (centres undefined)
Potency [1]: inconclusive: 61.1 µM [cytotoxic, partial curve]
Potency [2]: inconclusive: 48.6 µM [cytotoxic, partial curve, poor fit]

CN(C)C(=S)SSC(=S)N(C)C
Potency [1]: active: 12 µM and active: 9.69 µM and active: 7.5 µM
Potency [2]: active: 12 µM and active: 27.3 µM and active: 16.8 µM

CCOP(=O)(OCC)O/C(=C/Cl)c1ccc(Cl)cc1Cl
Potency [1]: inconclusive: 30.6 µM [cytotoxic, full curve, poor fit]

Oc1ccc(Cl)cc1Cc1ccccc1
Potency [1]: inconclusive: 61.1 µM [cytotoxic, partial curve, poor fit] and inconclusive: 49.2 µM [cytotoxic]
Potency [2]: inconclusive: 38.6 µM [cytotoxic, partial curve, poor fit] and inconclusive: 15.5 µM [cytotoxic, full curve, poor fit]

CCCCCCCCCCCCCC[P+](CCCCCC)(CCCCCC)CCCCCC (tested in a mixture with another compound)
Potency [1]: active: 24.3 µM
Potency [2]: active: 21.7 µM

C[C@@H]1O[C@@H](O[C@H]2C[C@@H](O)[C@]3(CO)[C@H]4[C@H](O)C[C@]5(C)[C@@H](C6=CC(=O)OC6)CC[C@]5(O)[C@@H]4CC[C@]3(O)C2)[C@H](O)[C@H](O)[C@H]1O
Potency [1]: active: 73 nM and inconclusive: 119 nM [cytotoxic, full curve]
Potency [2]: inconclusive: 81.9 nM [cytotoxic, full curve] and inconclusive: 106 nM [cytotoxic, full curve]

CC(C)OC(=O)C(O)(c1ccc(Cl)cc1)c1ccc(Cl)cc1
Potency [1]: inconclusive: 48.6 µM [cytotoxic, partial curve]

CCCCCCCC[N+](C)(CCCCCCCC)CCCCCCCC
Potency [1]: active: 8.62 µM and inconclusive: 770 nM [cytotoxic, partial curve, poor fit] and active: 48.6 µM
Potency [2]: active: 19.3 µM and inconclusive: 770 nM [cytotoxic, partial curve, poor fit] and active: 30.6 µM

CC(C)Nc1ccc(Nc2ccccc2)cc1
Potency [1]: inconclusive: 54.3 µM [cytotoxic, partial curve]
Potency [2]: inconclusive: 68.3 µM [cytotoxic, single point]

C=C(C)[C@H]1Cc2c(ccc3c2O[C@@H]2COc4cc(OC)c(OC)cc4[C@@H]2C3=O)O1
Potency [1]: inconclusive: 0.119 µM [cytotoxic, full curve, poor fit]
Potency [2]: inconclusive: 0.106 µM [cytotoxic, full curve, poor fit]
